The results in this text go back to the supplement of paper PMC8285479.

Where a name gives a salt, the structure may show the parent alone. ± gives the standard deviation of the averaged measurements. In all, about 1,900 compounds were measured (“normalised cell viability (NPI; 0 = phenylarsine oxide control, 1 = DMSO control)”: median about 1, lowest 2% from about 0.039 on). Some of the results follow.

This experiment has as its system NCI-H1944. The experiment is described as follows: normalised cell viability (NPI; 0 = phenylarsine oxide control, 1 = DMSO control) (fraction of DMSO control); NCI-H1944 is a non-small cell lung cancer line; higher = more viable cells (less compound toxicity). Conditions: 6 days.
The mark [1] stands for this setting: glucocorticoid arm: hydrocortisone 2.75 uM co-treatment, compound 1 µM.
The mark [2] stands for this setting: glucocorticoid arm: hydrocortisone 2.75 uM co-treatment, compound 5 µM.
The mark [3] stands for this setting: glucocorticoid arm: hydrocortisone 2.75 uM pre-treated 2 days and continued, compound 1 µM.
[4] abbreviates: glucocorticoid arm: hydrocortisone 2.75 uM pre-treated 2 days and continued, compound 5 µM.
Setting [5] is: glucocorticoid arm: vehicle, compound 1 µM.
The mark [6] stands for this setting: glucocorticoid arm: vehicle, compound 5 µM.
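Note: CTB read-out in 384-well plates, mean of triplicate wells, normalised per plate against 1 µM phenylarsine oxide and 0.1% DMSO, compounds added 24 h after seeding.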

Consider `Cc1[nH]c(/C=C2\C(=O)Nc3ccccc32)c(C)c1CCC(=O)O`, for which the normalised cell viability worked out at 1.02 ± 0.01 under setting [1]; 1.053 ± 0.0058 under setting [2]; 1.01 ± 0.015 under setting [3]; 1.02 ± 0.044 under setting [4]; 1.01 ± 0.011 under setting [5]; 1.02 ± 0.015 under setting [6].
For the molecule `CC(=O)N1CCN(c2ccc(OCC3COC(Cn4ccnc4)(c4ccc(Cl)cc4Cl)O3)cc2)CC1` (stereo not drawn) [Ketoconazole], the normalised cell viability runs as follows: under setting [1], 0.9503 ± 0.0045; under setting [2], 0.934 ± 0.022; under setting [3], 0.992 ± 0.016; under setting [4], 1.06 ± 0.061; under setting [5], 0.975 ± 0.001; under setting [6], 0.993 ± 0.011.
`CC(C)NCC(O)c1ccc(NS(C)(=O)=O)cc1` (stereo not drawn) [Sotalol]: the normalised cell viability by setting is: under setting [1], 1 ± 0.014; under setting [2], 0.993 ± 0.032; under setting [3], 1.037 ± 0.0058; under setting [4], 1.01 ± 0.017; under setting [5], 1.01; under setting [6], 0.9967 ± 0.0035.
In the case of `CC1=C(C)C(=O)C(CCCCC#CCCCC#CCO)=C(C)C1=O`, the normalised cell viability by setting is: under setting [1], 0.981 ± 0.01; under setting [2], 0.936 ± 0.01; under setting [3], 0.9697 ± 0.0065; under setting [4], 0.934 ± 0.0085; under setting [5], 0.97 ± 0.018; under setting [6], 0.9673 ± 0.004.
On to `CN(C)CCCCSC(=N)N`, for which the normalised cell viability under setting [1] worked out at 1.001 ± 0.0081; the normalised cell viability under setting [2] was found to be 1.01 ± 0.011; the normalised cell viability under setting [3] is 1.02 ± 0.026; the normalised cell viability under setting [4] was 1.02 ± 0.011; the normalised cell viability under setting [5] amounted to 0.9953 ± 0.0064; the normalised cell viability under setting [6] is 0.9883 ± 0.005.
As for `C1=N/C2=N/c3ccc(OCCN4CCCC4)c(c3)COC/C=C/COCc3cccc(c3)C(=C1)N2` [Pacritinib (SB1518)], the normalised cell viability worked out at 0.6 ± 0.36 under setting [1]; 0.309 ± 0.33 under setting [2]; 0.724 ± 0.19 under setting [3]; 0.37 ± 0.38 under setting [4]; 0.531 ± 0.51 under setting [5]; 0.194 ± 0.21 under setting [6].
As to `CC(C)(C)NS(=O)(=O)c1cncc(-c2cc(F)c3nc(N)nn3c2)c1`, the normalised cell viability under setting [1] was 1 ± 0.0095; the normalised cell viability under setting [2] was 0.988 ± 0.018; the normalised cell viability under setting [3] came to 1.01 ± 0.022; the normalised cell viability under setting [4] came to 0.984 ± 0.032; the normalised cell viability under setting [5] came out at 1.01 ± 0.013; the normalised cell viability under setting [6] turned out to be 1.01.
Take `CCN(CC)CCCC(C)Nc1c2ccc(Cl)cc2nc2ccc(OC)cc12` (stereo not drawn) [Quinacrine dihydrochloride]: the normalised cell viability stood at 0.999 ± 0.021 under setting [1]; 0.00304 ± 0.0019 under setting [2]; 1.01 ± 0.023 under setting [3]; 1.01 ± 0.014 under setting [4]; 0.995 ± 0.014 under setting [5]; 0.00159 ± 0.0012 under setting [6].
For `Cn1c(=O)c2[nH]c(-c3ccc(S(=O)(=O)O)cc3)nc2n(C)c1=O` [8-(p-Sulfophenyl)theophylline], the normalised cell viability turned out to be 0.984 ± 0.0061 under setting [1]; 0.998 ± 0.011 under setting [2]; 0.9847 ± 0.0035 under setting [3]; 0.976 ± 0.013 under setting [4]; 0.983 ± 0.013 under setting [5]; 0.9763 ± 0.0051 under setting [6].
Turning to `C[C@@H]1O[C@@H]1P(=O)(O)O` [Phosphomycin disodium], the normalised cell viability reads like this: under setting [1], 1.001 ± 0.0078; under setting [2], 1.01 ± 0.018; under setting [3], 0.9957 ± 0.0021; under setting [4], 1.03 ± 0.05; under setting [5], 1.01 ± 0.011; under setting [6], 1.02 ± 0.015.
Turning to `CC#CCOC(=O)c1c(C)nc2sc3c(c2c1N)CCC(O)C3` (stereo not drawn), the normalised cell viability is 1.02 ± 0.021 under setting [1]; 1 ± 0.019 under setting [2]; 1.03 ± 0.038 under setting [3]; 1.03 ± 0.017 under setting [4]; 1.013 ± 0.0058 under setting [5]; 1.013 ± 0.0058 under setting [6].
For the molecule `CN1CCc2cccc3c2C1Cc1ccc(O)c(O)c1-3` (stereo not drawn) [R-(-)-Apomorphine hydrochloride hemihydrate], the normalised cell viability was found to be 1.007 ± 0.0058 under setting [1]; 1.06 ± 0.015 under setting [2]; 1.013 ± 0.0058 under setting [3]; 1.045 ± 0.0071 under setting [4]; 0.999 ± 0.0095 under setting [5]; 1.01 under setting [6].
For `NC(=O)c1ccncc1` [Isonicotinamide], the normalised cell viability under setting [1] stood at 0.9957 ± 0.0059; the normalised cell viability under setting [2] came out at 1.01 ± 0.018; the normalised cell viability under setting [3] was 0.996 ± 0.016; the normalised cell viability under setting [4] worked out at 1.01 ± 0.015; the normalised cell viability under setting [5] turned out to be 1.001 ± 0.0071; the normalised cell viability under setting [6] amounted to 0.999 ± 0.015.
In the case of `O=C(O)C1=CCNCC1` [Isoguvacine hydrochloride], the normalised cell viability by setting is: under setting [1], 1.01 ± 0.015; under setting [2], 1.03 ± 0.015; under setting [3], 1.02 ± 0.015; under setting [4], 1.03 ± 0.015; under setting [5], 0.99933 ± 0.00058; under setting [6], 1 ± 0.0095.
As to `CNC(=C[N+](=O)[O-])NCCSCc1csc(CN(C)C)n1` [Nizatidine], the normalised cell viability reads like this: under setting [1], 1.03 ± 0.017; under setting [2], 1 ± 0.034; under setting [3], 1.03 ± 0.015; under setting [4], 1.01 ± 0.028; under setting [5], 0.9993 ± 0.0011; under setting [6], 0.997 ± 0.003.
In the case of `CC(C)CN(C[C@@H](O)[C@H](Cc1ccccc1)NC(=O)O[C@H]1CCOC1)S(=O)(=O)c1ccc(N)cc1` [Amprenavir (Agenerase)], the normalised cell viability under setting [1] came to 0.976 ± 0.018; the normalised cell viability under setting [2] worked out at 1.01 ± 0.035; the normalised cell viability under setting [3] was 0.994 ± 0.018; the normalised cell viability under setting [4] worked out at 1.02 ± 0.01; the normalised cell viability under setting [5] came to 0.988 ± 0.012; the normalised cell viability under setting [6] stood at 0.9963 ± 0.0063.
With `CCC1=C[C@@H]2CN(C1)Cc1c([nH]c3ccccc13)[C@@](C(=O)OC)(c1cc3c(cc1OC)N(C)[C@H]1[C@@](O)(C(=O)OC)[C@H](OC(C)=O)[C@]4(CC)C=CCN5CC[C@]31[C@@H]54)C2` [Vinorelbine tartrate], the normalised cell viability was found to be 0.327 ± 0.0017 under setting [1]; 0.35 ± 0.02 under setting [2]; 0.629 ± 0.017 under setting [3]; 0.683 ± 0.036 under setting [4]; 0.0577 ± 0.0028 under setting [5]; 0.0356 ± 0.0026 under setting [6].
In the case of `O=c1ccc2c(OCCCCc3ccccc3)c3ccoc3cc2o1` [Psora-4], the normalised cell viability under setting [1] was found to be 1.007 ± 0.0058; the normalised cell viability under setting [2] stood at 1.02; the normalised cell viability under setting [3] came out at 1.02 ± 0.015; the normalised cell viability under setting [4] is 1.02 ± 0.014; the normalised cell viability under setting [5] came to 0.986 ± 0.012; the normalised cell viability under setting [6] came to 0.9937 ± 0.0071.
For `C=CC(=O)Nc1cccc(Nc2nc(Nc3ccc(NC4CN(CCF)C4)cc3OC)ncc2C(F)(F)F)c1`, the normalised cell viability reads like this: under setting [1], 0.941 ± 0.011; under setting [2], 0.585 ± 0.048; under setting [3], 0.863 ± 0.018; under setting [4], 0.658 ± 0.071; under setting [5], 0.961 ± 0.016; under setting [6], 0.635 ± 0.013.
Turning to `NC(=O)c1cc[n+](CC2=C(C(=O)O)N3C(=O)[C@@H](NC(=O)C(c4ccccc4)S(=O)(=O)[O-])[C@H]3SC2)cc1` (stereo partly drawn) [Cefsulodin sodium salt hydrate], the normalised cell viability came to 1.01 under setting [1]; 1.013 ± 0.0058 under setting [2]; 1.02 under setting [3]; 1.01 ± 0.014 under setting [4]; 0.997 ± 0.013 under setting [5]; 0.9997 ± 0.0096 under setting [6].
On to `CCn1cc(C(=O)O)c(=O)c2cc(F)c(N3CCNC(C)C3)c(F)c21` (stereo not drawn) [Lomefloxacin hydrochloride], for which the normalised cell viability runs as follows: under setting [1], 0.997 ± 0.012; under setting [2], 0.971 ± 0.026; under setting [3], 1 ± 0.018; under setting [4], 0.941 ± 0.027; under setting [5], 1 ± 0.0095; under setting [6], 1.002 ± 0.0076.
For `CS(=O)(=O)Nc1ccc([N+](=O)[O-])cc1Oc1ccccc1` [Nimesulide], the normalised cell viability under setting [1] was 1.007 ± 0.0058; the normalised cell viability under setting [2] was found to be 1.01 ± 0.022; the normalised cell viability under setting [3] is 1.01 ± 0.01; the normalised cell viability under setting [4] came to 1.05 ± 0.064; the normalised cell viability under setting [5] was 0.991 ± 0.0036; the normalised cell viability under setting [6] turned out to be 1 ± 0.0089.
For the molecule `c1ccc2c(Oc3nc(Nc4ccc(N5CCOCC5)cc4)c4ncn(C5CCCCC5)c4n3)cccc2c1` [Purmorphamine], the normalised cell viability under setting [1] came out at 1.03 ± 0.01; the normalised cell viability under setting [2] was found to be 1.03; the normalised cell viability under setting [3] was 1.03 ± 0.011; the normalised cell viability under setting [4] came to 1.03 ± 0.027; the normalised cell viability under setting [5] was determined as 1.023 ± 0.0058; the normalised cell viability under setting [6] stood at 1.017 ± 0.0058.
